# Measured values as given in publication PMC4336329 (PLoS ONE, 2015).
# Among all 310,000 compounds or so, about 14,000 (4.5%) showed an effect of 50% or more. Effects have a minus sign here. The list shows a part of the results.
# Target: human ether-à-go-go-related gene (hERG) potassium channel (human, UniProt Q12809)
# Experiment: primary screen, population patch clamp on CHO cells stably expressing hERG
# 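Further: peak tail current of the secondary pulse compared with the same well before compound.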
# Sequence of human ether-à-go-go-related gene (hERG) potassium channel (Q12809 whole entry, looked up): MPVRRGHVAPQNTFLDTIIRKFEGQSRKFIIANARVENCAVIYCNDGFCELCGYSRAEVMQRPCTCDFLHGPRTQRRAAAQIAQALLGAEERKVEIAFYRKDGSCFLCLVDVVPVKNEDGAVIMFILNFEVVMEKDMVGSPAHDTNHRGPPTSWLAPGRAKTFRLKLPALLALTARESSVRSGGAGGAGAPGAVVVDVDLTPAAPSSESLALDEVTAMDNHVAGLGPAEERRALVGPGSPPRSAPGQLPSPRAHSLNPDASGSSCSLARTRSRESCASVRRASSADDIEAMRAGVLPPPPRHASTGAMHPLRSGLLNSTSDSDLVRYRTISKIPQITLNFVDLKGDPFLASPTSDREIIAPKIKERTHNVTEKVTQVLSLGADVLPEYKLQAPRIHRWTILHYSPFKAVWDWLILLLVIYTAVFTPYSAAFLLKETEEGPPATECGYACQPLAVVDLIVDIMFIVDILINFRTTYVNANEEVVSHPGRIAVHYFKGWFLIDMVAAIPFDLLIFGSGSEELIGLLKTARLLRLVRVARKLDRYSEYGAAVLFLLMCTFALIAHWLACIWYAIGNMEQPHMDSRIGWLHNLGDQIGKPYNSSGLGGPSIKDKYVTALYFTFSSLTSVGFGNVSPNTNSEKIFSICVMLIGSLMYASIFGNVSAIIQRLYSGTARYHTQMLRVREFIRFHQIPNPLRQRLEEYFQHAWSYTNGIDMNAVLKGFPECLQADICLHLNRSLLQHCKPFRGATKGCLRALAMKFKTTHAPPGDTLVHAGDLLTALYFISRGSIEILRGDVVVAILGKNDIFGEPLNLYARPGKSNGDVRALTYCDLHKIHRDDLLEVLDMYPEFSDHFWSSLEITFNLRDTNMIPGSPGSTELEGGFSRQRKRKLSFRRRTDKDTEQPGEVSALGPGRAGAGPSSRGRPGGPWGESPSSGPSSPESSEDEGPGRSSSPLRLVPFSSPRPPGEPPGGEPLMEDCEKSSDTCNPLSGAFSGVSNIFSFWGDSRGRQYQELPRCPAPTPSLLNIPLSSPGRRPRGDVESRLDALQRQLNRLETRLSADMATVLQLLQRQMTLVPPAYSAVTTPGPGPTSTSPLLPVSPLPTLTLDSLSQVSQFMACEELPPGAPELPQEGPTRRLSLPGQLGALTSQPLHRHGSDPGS
row,Compound,"hERG current change (%, negative = inhibition) at 10uM [%]"
1,CC(C)(CNC(=O)c1ccc(Br)o1)N1CCOCC1,6.38
2,COc1ccc(C(=O)Cc2nnc(C)s2)cc1,8.47
3,COC(=O)c1cc2nc(-c3ccc(C)cc3)cc(C(F)(F)F)n2n1,-3.89
4,CC(=O)N(C)c1ccc(NC(=O)Nc2ccc(C)cc2)cc1,24.9
5,Cc1cc(=O)oc2cc(OC(C)C(=O)NC3CCCC3)ccc12 (stereo not shown),-33.4
6,Cc1c(C(=O)N(C)Cc2ccc(OC(F)F)cc2)oc2ccccc12,-69.9
7,CCC(=O)N(Cc1cc2c(C)ccc(C)c2[nH]c1=O)C1CCCCC1,-20.8
8,CCOc1ccc(C2OC34CCCCC3C(C#N)(C#N)C2(C#N)C(=N)O4)cc1OC (stereo not shown),6.43
9,COc1cc(OC)cc(C(=O)NC(=S)Nc2nc(-c3cc4ccccc4o3)cs2)c1,3.05
10,O=C(NCCSc1ccc(Br)cc1)c1ccc2nc[nH]c2c1,-13.7
11,COc1ccc(/C(C)=N/N=C(\C)c2ccc(OC)cc2OC)c(OC)c1,-8.16
12,COc1ccc2c(c1)OC[C@H]1[C@H]2N2C(=O)CN(Cc3ccc(C)cc3)C(=O)[C@@]2(C)[C@H]1c1ccccc1,17.9
13,O=C(Nc1cccnc1)C1CC(c2ccc(Cl)c(Cl)c2)=NO1 (stereo not shown),-18.7
14,Cc1cccc(N2C(=O)C3C4CC(C(Br)C4Br)C3C2=O)n1 (stereo not shown),15.3
15,COC(=O)c1ccc(Oc2cc(C)nc(SC)n2)cc1,4.12
16,COc1ccc(NC(=O)Cc2nnc(SCC(=O)Nc3ccccc3)n2C)cc1,20.6
17,COC(=O)N/N=C/c1cn(Cc2ccccc2F)c2ccccc12,6.63
18,Cc1ccc(C)c(NC(=O)CN(C)C(=O)COc2ncnc3sccc23)c1,-6.59
19,O=C(NCc1ccc(Cl)cc1)c1cc2ccccn2n1,-28.8
20,CC(C)n1nc(C(=O)OCC(=O)N2CC(=O)Nc3ccccc32)c2ccccc2c1=O,-44.7
21,COc1ccc(Cn2nnnc2C(c2cc3cccc(C)c3[nH]c2=O)N2CCN(C)CC2)cc1 (stereo not shown),29.6
22,Cc1cc(C)c(NC(=O)COC(=O)C2CCCCC2)c(C)c1,4.87
23,O=C(Nc1ccc2c(c1)OCO2)C(=O)c1c[nH]c2ccccc12,22.3
24,C=Cc1c(C)c2cc3[nH]c(cc4nc(cc5nc(cc1[nH]2)C(C)=C5CCC(=O)O)C(CCC(=O)O)=C4C)c(C)c3C=C,17.7
25,CC(NC(N)=O)C12CC3CC(CC(C3)C1)C2 (stereo not shown),14.2
26,CCN1CCN(S(=O)(=O)c2cc(OC)ccc2OC)CC1,18.4
27,O=C(c1ccccc1)c1c[nH]c(C(=O)NCCCN2CCOCC2)c1,-19.4
28,CC(=O)NC(=S)Nc1ccc(NC(=S)NC(=O)/C=C/c2ccco2)cc1,16.4

row,Compound,"hERG current change (%, negative = inhibition) at 10uM [%]"
1,COc1ccc(-n2c(SCC(=O)Nc3ccc(C(N)=O)cc3)nc3c([nH]c4ccccc43)c2=O)cc1OC,20.1
2,Cn1nc(-c2ccc(Cl)cc2)cc1NC(=O)Nc1ccccc1,5.81
3,Cc1nn(-c2ccc(Cl)cc2)c(NC(=O)C(C)C)c(-c2ccccc2)c1=O,10.5
4,Cc1[nH]c(C)c2c(=O)[nH]ncc12,16.6
5,O=C(N/N=C/c1ccc(N2CCOCC2)cc1)c1ccccc1NS(=O)(=O)c1cccs1,4.46
6,O=C(N/N=C/c1ccc(F)cc1)c1sccc1OCc1ccc(F)cc1,-3.12
7,COCCn1c(SCC(=O)Nc2ccc(OC)cc2)nc2c(oc3ccccc32)c1=O,-3.87
8,CC(C(=O)Nc1ccccc1-c1ccccc1)N1CCN(S(=O)(=O)c2ccccc2)CC1 (stereo not shown),-14.3
9,Cc1ccc(C)c(NC(=O)CSc2nnc(CCNC(=O)OC(C)(C)C)o2)c1,-12.3
10,O=C(CSc1ncn[nH]1)N1CCCCC1,21
11,CCC(C(=O)NC1CCCCC1)N(Cc1cccs1)C(=O)c1snc(C(N)=O)c1N (stereo not shown),-16.8
12,CCCn1c(C(=O)OC)cc2c1ccn2-c1ccc(F)cc1,13.4
13,Cc1ccccc1-c1nnc(SCC(=O)N(CC(C)C)c2c(N)n(CC(C)C)c(=O)[nH]c2=O)n1C,30.2
14,CC(C)c1ccc(OCC(O)CN2CCN(c3ccccc3)CC2)cc1.Cl (stereo not shown),-47.3
15,COc1ccc(NC(=O)CN2CCN(c3ccccc3C)CC2)cc1,-41.2
16,O=C(Oc1cccc(C(=O)N2CCOCC2)c1)c1ccc(Br)cc1,-8.03
17,COc1ccc(OC)c(NC(=O)COC(=O)CSc2ccc(Cl)cc2)c1,-3.36
18,COc1ccccc1CN(Cc1cc2c(C)ccc(C)c2[nH]c1=O)Cc1nnnn1Cc1ccco1,-1.04
19,N#CC1=C(N)Oc2n[nH]c(-c3ccccc3)c2C12C(=O)Nc1ccccc12 (stereo not shown),17.4
20,COc1ccc2cc(C(=O)C3CCCN(C(=O)c4sc(C)nc4C)C3)ccc2c1 (stereo not shown),-22.8
21,N#Cc1ccccc1NC(=O)COC(=O)CSc1nc2ccccc2o1,9.73
22,COc1ccc(-c2nnc(SCC(=O)O)n2Cc2ccccc2)cc1,23.9
23,O=C(O)c1ccc(C2NCC(c3ccccc3Cl)c3c2[nH]c2ccccc32)cc1 (stereo not shown),28.6
24,CCOc1ccc(N(CC)S(=O)(=O)c2ccc3c(c2)oc(=O)n3C)cc1,-5.43
25,Cc1nc(-c2cccc(S(=O)(=O)N3CCCC(C)C3)c2)cs1 (stereo not shown),-9.76
26,CC(C)NC(=O)COC(=O)C1CSC2(c3ccc(Br)cc3)CCC(=O)N12 (stereo not shown),-28.9
27,Br.CCCCN1C2=NCCCN2c2ccccc21,-54.5
